Measured values published in a collection of fitness landscapes (doi:10.1016/j.celrep.2020.107928).
Over roughly 81,000 sequences, “one-hybrid fitness for binding parS DNA” has its median near -0.17; the highest 2% begin near 0.51. Some of the results follow.

B1: Caulobacter ParB omega fusion; a variant is named by its letters at X, in order, B8GW30 (parent)
chain: MESVVVGEPGMSEGRRGLGRGLSALLGEVDAAPAQAPGEQLGGSREAPIEILQRNPDQPRRTFREEDLEDLSNSIREKGVLQPILVRPSPDTAGEYQIVAGERAWRAAQRAGLKTVPIMVRELDDLAVLEIGIIENVQRADLNVLEEALSYKVLMEKFERTQENIAQTIGKSXSHVANXMRLLXLPDEVQSYLVSGELTAXHARAIAAAADPVALAKQIIEGGLSVRETEALARKAPNLSAGKSKGGRPPRVKDTDTQALESDLSSVLGLDVSIDHRGSTGTLTITYATLEQLDDLCNRLTRGI

Variants of: B1
Experiment: one-hybrid fitness for binding parS DNA (scaled: cognate 1, non-cognate 0); higher = stronger binding
Details: with parS DNA site
Method in brief: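 In E. coli USO, a HIS3 reporter with its site placed 19 bp from the promoter was used to select Caulobacter ParB variants randomised at four specificity codons. Growth lasted 48 hours at 37°C on histidine-free M9 containing 0.1 mM IPTG and 5 mM 3-AT. Fitness was taken as the log change in variant-to-wild-type read ratio from Illumina sequencing of pre- and post-selection plasmids, rescaled between the non-cognate and cognate sites.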

| Variant | one-hybrid fitness for binding parS DNA |
| --- | --- |
| ATRD | ≤ 0.2 |
| LTPW | ≤ 0.2 |
| CFSV | ≤ 0.2 |
| NETE | ≤ 0.2 |
| HIAN | ≤ 0.2 |
| LRKS | ≤ 0.2 |
| TQRT | ≤ 0.2 |
| HFSR | ≤ 0.2 |
| KCKY | ≤ 0.2 |
| RWYF | ≤ 0.2 |
| HDAF | ≤ 0.2 |
| HSQI | ≤ 0.2 |
| DYSP | ≤ 0.2 |
| WHAG | ≤ 0.2 |
| LGQT | ≤ 0.2 |
| SNSL | ≤ 0.2 |
| ADTA | ≤ 0.2 |
| HRSD | ≤ 0.2 |
| MRFK | ≤ 0.2 |
| QCEG | ≤ 0.2 |
| DSWR | ≤ 0.2 |
| LSRF | ≤ 0.2 |
| LTMM | ≤ 0.2 |
| PFII | ≤ 0.2 |

| Variant | one-hybrid fitness for binding parS DNA |
| --- | --- |
| DVNV | ≤ 0.2 |
| VSLE | ≤ 0.2 |
| CKHP | ≤ 0.2 |
| EQEG | ≤ 0.2 |
| KSNG | ≤ 0.2 |
| NPLW | ≤ 0.2 |
| SDLV | ≤ 0.2 |
| WLYR | ≤ 0.2 |
| AYYR | ≤ 0.2 |
| YDLA | ≤ 0.2 |
| QFER | ≤ 0.2 |
| LYTA | ≤ 0.2 |
| PQIC | ≤ 0.2 |
| PVHM | ≤ 0.2 |
| PDMV | ≤ 0.2 |
| ARKS | ≤ 0.2 |
| CPTM | ≤ 0.2 |
| EART | ≤ 0.2 |
| AKGG | ≤ 0.2 |
| IPGC | ≤ 0.2 |
| GMVM | ≤ 0.2 |
| KPLI | ≤ 0.2 |
| NTPH | ≤ 0.2 |
| NQLS | ≤ 0.2 |

| Variant | one-hybrid fitness for binding parS DNA |
| --- | --- |
| LKRM | ≤ 0.2 |
| HKDS | ≤ 0.2 |
| TKRA | ≤ 0.2 |
| VDIA | ≤ 0.2 |
| DNSS | ≤ 0.2 |
| TVRW | ≤ 0.2 |
| AQDK | ≤ 0.2 |
| MWHR | ≤ 0.2 |
| VIPV | ≤ 0.2 |
| SCSA | ≤ 0.2 |
| FAHR | ≤ 0.2 |
| KEGS | ≤ 0.2 |
| LNNM | ≤ 0.2 |
| IYQS | ≤ 0.2 |
| QQFS | ≤ 0.2 |
| EGHG | ≤ 0.2 |
| KIYN | ≤ 0.2 |
| GNQH | ≤ 0.2 |
| TVKC | ≤ 0.2 |
| FTCG | ≤ 0.2 |
| QLPE | ≤ 0.2 |
| QGFF | ≤ 0.2 |
| TQCR | ≤ 0.2 |
| SYFS | ≤ 0.2 |

| Variant | one-hybrid fitness for binding parS DNA |
| --- | --- |
| DGSY | ≤ 0.2 |
| PIAG | ≤ 0.2 |
| HPTF | ≤ 0.2 |
| LVHA | ≤ 0.2 |
| LGRA | ≤ 0.2 |
| DGRS | ≤ 0.2 |
| SWPW | ≤ 0.2 |
| DQRT | ≤ 0.2 |
| MSQR | ≤ 0.2 |
| MHSG | ≤ 0.2 |
| HGKR | ≤ 0.2 |
| CNFD | ≤ 0.2 |
| PQQA | ≤ 0.2 |
| KPVQ | ≤ 0.2 |
| HEHN | ≤ 0.2 |
| VRRH | ≤ 0.2 |
| PHIG | ≤ 0.2 |
| LVVH | ≤ 0.2 |
| RTPE | ≤ 0.2 |
| SGIC | ≤ 0.2 |
| DPLT | ≤ 0.2 |
| VAAN | ≤ 0.2 |
| VPHC | ≤ 0.2 |
| AEAG | ≤ 0.2 |

| Variant | one-hybrid fitness for binding parS DNA |
| --- | --- |
| QKDH | ≤ 0.2 |
| SATF | ≤ 0.2 |
| TTPN | ≤ 0.2 |
| PWGG | ≤ 0.2 |
| CNYC | ≤ 0.2 |
| QWGR | ≤ 0.2 |
| VINS | ≤ 0.2 |
| VADS | ≤ 0.2 |
| EAEP | ≤ 0.2 |
| LRDM | ≤ 0.2 |
| PRKY | ≤ 0.2 |
| QIAM | ≤ 0.2 |
| LSMV | ≤ 0.2 |
| FPYI | ≤ 0.2 |
| TSEN | ≤ 0.2 |
| DVMA | ≤ 0.2 |
| HEPG | ≤ 0.2 |
| SNSS | ≤ 0.2 |
| HSIL | ≤ 0.2 |
| NLIA | ≤ 0.2 |
| VCVG | ≤ 0.2 |
| QSQI | ≤ 0.2 |
| VVLR | ≤ 0.2 |
| TSRE | ≤ 0.2 |

| Variant | one-hybrid fitness for binding parS DNA |
| --- | --- |
| RWLM | ≤ 0.2 |
| VQPS | ≤ 0.2 |
| ESLF | ≤ 0.2 |
| SMHS | ≤ 0.2 |
| KYIF | ≤ 0.2 |
| IQNW | ≤ 0.2 |
| SFPK | ≤ 0.2 |
| DAGD | ≤ 0.2 |
| PAWQ | ≤ 0.2 |
| EGRA | ≤ 0.2 |
| RWEG | 0.563 |
| REQV | ≤ 0.2 |
| CCNT | ≤ 0.2 |
| LKVF | ≤ 0.2 |
| HAIR | ≤ 0.2 |
| RMRD | ≤ 0.2 |
| QAWT | ≤ 0.2 |
| DSRM | ≤ 0.2 |
| VPAW | ≤ 0.2 |
| SNQT | ≤ 0.2 |
| NDPG | ≤ 0.2 |
| HICA | ≤ 0.2 |
| SDHH | ≤ 0.2 |
| GGVT | ≤ 0.2 |

| Variant | one-hybrid fitness for binding parS DNA |
| --- | --- |
| FIIR | ≤ 0.2 |
| EAPG | ≤ 0.2 |
| HVAA | ≤ 0.2 |
| RKVH | ≤ 0.2 |
| PLQY | ≤ 0.2 |
| VYWM | ≤ 0.2 |
| ADGC | ≤ 0.2 |
| YVGT | ≤ 0.2 |
| KHGV | ≤ 0.2 |
| MQIC | ≤ 0.2 |
| QKLF | ≤ 0.2 |
| RRMY | 0.25 |
| HTKT | ≤ 0.2 |
| QTQK | ≤ 0.2 |
| PPDS | ≤ 0.2 |
| EPYD | ≤ 0.2 |
| LLLI | ≤ 0.2 |
| KSSW | ≤ 0.2 |
| AIVW | ≤ 0.2 |
| CRAC | ≤ 0.2 |
| CRGA | ≤ 0.2 |
| IRPN | ≤ 0.2 |
| PDLT | ≤ 0.2 |
| ELVL | ≤ 0.2 |

| Variant | one-hybrid fitness for binding parS DNA |
| --- | --- |
| FLFR | ≤ 0.2 |
| TVML | ≤ 0.2 |
| GKPI | ≤ 0.2 |
| PWHI | ≤ 0.2 |
| RFVY | 0.301 |
| MSMC | ≤ 0.2 |
| AMAC | ≤ 0.2 |
| KQCC | ≤ 0.2 |
| LLES | ≤ 0.2 |
| ATWR | ≤ 0.2 |
| PCKC | ≤ 0.2 |
| PHAV | ≤ 0.2 |
| TLPQ | ≤ 0.2 |
| TMLY | ≤ 0.2 |
| TRHS | ≤ 0.2 |
| RACS | 1 |
| LHNR | ≤ 0.2 |
| CKFF | ≤ 0.2 |
| HIRY | ≤ 0.2 |
| RIHH | ≤ 0.2 |
| RHKL | ≤ 0.2 |
| GVPD | ≤ 0.2 |
| GAMN | ≤ 0.2 |
| GSET | ≤ 0.2 |

| Variant | one-hybrid fitness for binding parS DNA |
| --- | --- |
| YRSL | ≤ 0.2 |
| TSFK | ≤ 0.2 |
| HATG | ≤ 0.2 |
| FMSK | ≤ 0.2 |
| NYES | ≤ 0.2 |
| TGQC | ≤ 0.2 |
| CPAI | ≤ 0.2 |
| FTWF | ≤ 0.2 |
| YRPS | ≤ 0.2 |
| LMPG | ≤ 0.2 |
| SRHK | ≤ 0.2 |
| QGLL | ≤ 0.2 |
| GRQC | ≤ 0.2 |
| SEVC | ≤ 0.2 |
| FRLF | ≤ 0.2 |
| FAGC | ≤ 0.2 |
| NAKN | 0.205 |
| EQLI | ≤ 0.2 |
| SVTV | ≤ 0.2 |
| FVLT | ≤ 0.2 |
| HKQS | ≤ 0.2 |
| NIRW | ≤ 0.2 |
| MSEG | ≤ 0.2 |
| AQQY | ≤ 0.2 |

| Variant | one-hybrid fitness for binding parS DNA |
| --- | --- |
| QTMT | ≤ 0.2 |
| QISI | ≤ 0.2 |
| RPRF | ≤ 0.2 |
| YHCF | ≤ 0.2 |
| CRSE | ≤ 0.2 |
| PVER | ≤ 0.2 |
| TFTT | ≤ 0.2 |
| YFNR | ≤ 0.2 |
| KRRS | ≤ 0.2 |
| NVAD | ≤ 0.2 |
| RMKK | ≤ 0.2 |
| PYNL | ≤ 0.2 |
| TGAY | ≤ 0.2 |
| VNVT | ≤ 0.2 |
| AMAF | ≤ 0.2 |
| RCGW | 0.227 |
| RMTY | 0.497 |
| QKEC | ≤ 0.2 |
| DPAN | ≤ 0.2 |
| VQNR | ≤ 0.2 |
| QLLV | ≤ 0.2 |
| HGIT | ≤ 0.2 |
| TTDH | ≤ 0.2 |
| ASTM | ≤ 0.2 |

| Variant | one-hybrid fitness for binding parS DNA |
| --- | --- |
| EPYK | ≤ 0.2 |
| TTRV | ≤ 0.2 |
| LECA | ≤ 0.2 |
| RRMW | ≤ 0.2 |
| KGWY | ≤ 0.2 |
| YTGV | ≤ 0.2 |
| DITR | ≤ 0.2 |
| MSDC | ≤ 0.2 |
| NVHL | ≤ 0.2 |
| SPEK | ≤ 0.2 |
| QFSM | ≤ 0.2 |
| YKMS | ≤ 0.2 |
| VRAK | ≤ 0.2 |
| NFQF | ≤ 0.2 |
| ARHP | ≤ 0.2 |
| GQYG | ≤ 0.2 |
| MVDL | ≤ 0.2 |
| EQCS | ≤ 0.2 |
| NVRV | ≤ 0.2 |
| KCNF | ≤ 0.2 |
| VLRL | ≤ 0.2 |
| VDIF | ≤ 0.2 |
| PMSV | ≤ 0.2 |
| CSCS | ≤ 0.2 |

| Variant | one-hybrid fitness for binding parS DNA |
| --- | --- |
| PTYP | ≤ 0.2 |
| RHQR | ≤ 0.2 |
| ERAY | ≤ 0.2 |
| SARG | ≤ 0.2 |
| HPYV | ≤ 0.2 |
| IVNI | ≤ 0.2 |
| VGVC | ≤ 0.2 |
| LCFC | ≤ 0.2 |
| RFAS | 0.976 |
| FHPL | ≤ 0.2 |
| FLPE | ≤ 0.2 |
| PMTL | ≤ 0.2 |
| NLQL | ≤ 0.2 |
| EQTT | ≤ 0.2 |
| REVR | ≤ 0.2 |
| EGFR | ≤ 0.2 |
| CAQS | ≤ 0.2 |
| IGRG | ≤ 0.2 |
| VSFS | ≤ 0.2 |
| MRWS | ≤ 0.2 |
| MSLG | ≤ 0.2 |
| RMAG | 1.01 |
| LELV | ≤ 0.2 |
| NNYT | ≤ 0.2 |

| Variant | one-hybrid fitness for binding parS DNA |
| --- | --- |
| QKVM | ≤ 0.2 |
| RDEV | ≤ 0.2 |
| YGYL | ≤ 0.2 |
| QQSH | ≤ 0.2 |
| FVNL | ≤ 0.2 |
| PTSQ | ≤ 0.2 |
| RRRH | 0.592 |
| QRTN | ≤ 0.2 |
| KQQV | ≤ 0.2 |
| LGLT | ≤ 0.2 |
| DTPA | ≤ 0.2 |
| NTDY | ≤ 0.2 |
| FRDI | 0.207 |
| PGTW | ≤ 0.2 |
| EMRG | ≤ 0.2 |
| DVYS | ≤ 0.2 |
| HVQY | ≤ 0.2 |
| PRWD | ≤ 0.2 |
